{"source": "the supplement of paper PMC8728848", "binders": {"B1": {"name": "PfulAvr4 (Pseudocercospora fuligena) (protein)", "chain": "HHHHHHDYKDDDDKTYVQDKTPAFVCPAADIKTTKCLGPKDCLYPSPKTCNGYIQCSPADDSYLTGIIHEMPCPSGLLWNDNKKWCDWPENTTCGLVKSAGATEVDATKQGPTPGKYHG"}}, "assay_in_all_cases": "glycan array binding signal (z-score within array); higher = stronger binding", "conditions_in_all_cases": "glycan notation: IUPAC condensed, linker removed", "key": {"[1]": {"target": "Gal(b1-4)GlcNAc(b1-3)Gal(b1-4)GlcNAc(b1-3)Gal(b1-4)GlcNAc(b1-3)Gal(b1-4)GlcNAc(b1-2)Man(a1-3)[Gal(b1-4)GlcNAc(b1-3)Gal(b1-4)GlcNAc(b1-3)Gal(b1-4)GlcNAc(b1-3)Gal(b1-4)GlcNAc(b1-2)Man(a1-6)]Man(b1-4)GlcNAc(b1-4)[Fuc(a1-6)]GlcNAc", "in_short": "(§1)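 Glycan array data were curated from 3228 arrays in the Consortium for Functional Glycomics database and kept only where the protein sequence was available. Glycan names were converted to IUPAC-condensed notation, and columns mapping to the same glycan were averaged. The binding signal is a within-array Z-score, averaged across arrays of the same protein sequence at different concentrations or buffers and across linkers. Negative Z-scores can be read as non-binding.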"}, "[2]": {"target": "Gal(b1-4)GlcNAc(b1-3)Gal(b1-4)GlcNAc(b1-3)Gal(b1-4)GlcNAc(b1-3)Gal(b1-4)GlcNAc(b1-2)[Gal(b1-4)GlcNAc(b1-3)Gal(b1-4)GlcNAc(b1-3)Gal(b1-4)GlcNAc(b1-3)Gal(b1-4)GlcNAc(b1-6)]Man(a1-6)[Gal(b1-4)GlcNAc(b1-3)Gal(b1-4)GlcNAc(b1-3)Gal(b1-4)GlcNAc(b1-3)Gal(b1-4)GlcNAc(b1-2)Man(a1-3)]Man(b1-4)GlcNAc(b1-4)[Fuc(a1-6)]GlcNAc", "in_short": "as §1"}, "[3]": {"target": "Gal(b1-4)GlcNAc(b1-3)Gal(b1-4)GlcNAc(b1-3)Gal(b1-4)GlcNAc(b1-3)Gal(b1-4)GlcNAc(b1-3)Gal(b1-4)GlcNAc(b1-2)Man(a1-3)[Gal(b1-4)GlcNAc(b1-3)Gal(b1-4)GlcNAc(b1-3)Gal(b1-4)GlcNAc(b1-3)Gal(b1-4)GlcNAc(b1-3)Gal(b1-4)GlcNAc(b1-2)Man(a1-6)]Man(b1-4)GlcNAc(b1-4)GlcNAc", "in_short": "as §1"}, "[4]": {"target": "Gal(b1-4)GlcNAc(b1-3)Gal(b1-4)GlcNAc(b1-3)Gal(b1-4)GlcNAc(b1-3)Gal(b1-4)GlcNAc(b1-3)Gal(b1-4)GlcNAc(b1-2)Man(a1-3)[Gal(b1-4)GlcNAc(b1-3)Gal(b1-4)GlcNAc(b1-3)Gal(b1-4)GlcNAc(b1-3)Gal(b1-4)GlcNAc(b1-3)Gal(b1-4)GlcNAc(b1-2)Man(a1-6)]Man(b1-4)GlcNAc(b1-4)[Fuc(a1-6)]GlcNAc", "in_short": "as §1"}, "[5]": {"target": "Gal(b1-4)GlcNAc(b1-3)Gal(b1-4)GlcNAc(b1-3)Gal(b1-4)GlcNAc(b1-3)Gal(b1-4)GlcNAc(b1-3)Gal(b1-4)GlcNAc(b1-2)[Gal(b1-4)GlcNAc(b1-3)Gal(b1-4)GlcNAc(b1-3)Gal(b1-4)GlcNAc(b1-3)Gal(b1-4)GlcNAc(b1-3)Gal(b1-4)GlcNAc(b1-6)]Man(a1-6)[Gal(b1-4)GlcNAc(b1-3)Gal(b1-4)GlcNAc(b1-3)Gal(b1-4)GlcNAc(b1-3)Gal(b1-4)GlcNAc(b1-3)Gal(b1-4)GlcNAc(b1-2)Man(a1-3)]Man(b1-4)GlcNAc(b1-4)[Fuc(a1-6)]GlcNAc", "in_short": "as §1"}, "[6]": {"target": "Gal(b1-4)GlcNAc(b1-3)Gal(b1-4)GlcNAc(b1-3)Gal(b1-4)GlcNAc(b1-3)Gal(b1-4)GlcNAc(b1-3)Gal(b1-4)GlcNAc(b1-3)Gal(b1-4)GlcNAc(b1-2)Man(a1-3)[Gal(b1-4)GlcNAc(b1-3)Gal(b1-4)GlcNAc(b1-3)Gal(b1-4)GlcNAc(b1-3)Gal(b1-4)GlcNAc(b1-3)Gal(b1-4)GlcNAc(b1-3)Gal(b1-4)GlcNAc(b1-2)Man(a1-6)]Man(b1-4)GlcNAc(b1-4)GlcNAc", "in_short": "as §1"}, "[7]": {"target": "Gal(b1-4)GlcNAc(b1-3)Gal(b1-4)GlcNAc(b1-3)GalNAc", "in_short": "as §1"}, "[8]": {"target": "Gal(b1-4)GlcNAc(b1-3)Gal(b1-4)GlcNAc(b1-3)[Gal(b1-4)GlcNAc(b1-3)Gal(b1-4)GlcNAc(b1-6)]GalNAc", "in_short": "as §1"}, "[9]": {"target": "Gal(b1-4)GlcNAc(b1-3)Gal(b1-4)GlcNAc(b1-6)[Gal(b1-3)]GalNAc", "in_short": "as §1"}, "[10]": {"target": "Gal(b1-4)GlcNAc(b1-3)Gal(b1-4)[Fuc(a1-3)]GlcNAc(b1-3)Gal(b1-4)[Fuc(a1-3)]GlcNAc", "in_short": "as §1"}, "[11]": {"target": "Gal(b1-4)GlcNAc(b1-3)GalNAc", "in_short": "as §1"}, "[12]": {"target": "Gal(b1-4)GlcNAc(b1-3)[Fuc(a1-3)GlcNAc(b1-6)]Gal(b1-4)Glc", "in_short": "as §1"}, "[13]": {"target": "Gal(b1-4)GlcNAc(b1-3)[Gal(b1-4)GlcNAc(b1-6)]Gal(b1-4)GlcNAc", "in_short": "as §1"}, "[14]": {"target": "Gal(b1-4)GlcNAc(b1-3)[GlcNAc(b1-6)]Gal(b1-4)GlcNAc", "in_short": "as §1"}, "[15]": {"target": "Gal(b1-4)GlcNAc(b1-6)Gal(b1-4)GlcNAc", "in_short": "as §1"}, "[16]": {"target": "Gal(b1-4)GlcNAc(b1-6)GalNAc", "in_short": "as §1"}, "[17]": {"target": "Gal(b1-4)GlcNAc(b1-6)[Gal(b1-3)]GalNAc", "in_short": "as §1"}, "[18]": {"target": "Gal(b1-4)GlcNAc(b1-6)[Gal(b1-4)GlcNAc(b1-3)]GalNAc", "in_short": "as §1"}, "[19]": {"target": "Gal(b1-4)GlcNAc6P", "in_short": "as §1"}, "[20]": {"target": "Gal(b1-6)Gal", "in_short": "as §1"}, "[21]": {"target": "Gal3S(b1-3)GalNAc", "in_short": "as §1"}, "[22]": {"target": "Gal3S(b1-3)GlcNAc", "in_short": "as §1"}, "[23]": {"target": "Gal3S(b1-3)[Fuc(a1-4)]GlcNAc", "in_short": "as §1"}}, "note": "The list shows a part of the results.", "data": [{"binder": "B1", "values": [{"measurement": "glycan array binding signal (z-score)", "setting": "[1]", "value": -0.135}, {"measurement": "glycan array binding signal (z-score)", "setting": "[2]", "value": 0.06}, {"measurement": "glycan array binding signal (z-score)", "setting": "[3]", "value": 0.012}, {"measurement": "glycan array binding signal (z-score)", "setting": "[4]", "value": 0.048}, {"measurement": "glycan array binding signal (z-score)", "setting": "[5]", "value": -0.064}, {"measurement": "glycan array binding signal (z-score)", "setting": "[6]", "value": -0.109}, {"measurement": "glycan array binding signal (z-score)", "setting": "[7]", "value": -0.065}, {"measurement": "glycan array binding signal (z-score)", "setting": "[8]", "value": 0.081}, {"measurement": "glycan array binding signal (z-score)", "setting": "[9]", "value": -0.067}, {"measurement": "glycan array binding signal (z-score)", "setting": "[10]", "value": -0.139}, {"measurement": "glycan array binding signal (z-score)", "setting": "[11]", "value": -0.096}, {"measurement": "glycan array binding signal (z-score)", "setting": "[12]", "value": -0.136}, {"measurement": "glycan array binding signal (z-score)", "setting": "[13]", "value": -0.169}, {"measurement": "glycan array binding signal (z-score)", "setting": "[14]", "value": 1.21}, {"measurement": "glycan array binding signal (z-score)", "setting": "[15]", "value": 0.05}, {"measurement": "glycan array binding signal (z-score)", "setting": "[16]", "value": -0.101}, {"measurement": "glycan array binding signal (z-score)", "setting": "[17]", "value": 0.157}, {"measurement": "glycan array binding signal (z-score)", "setting": "[18]", "value": -0.051}, {"measurement": "glycan array binding signal (z-score)", "setting": "[19]", "value": -0.097}, {"measurement": "glycan array binding signal (z-score)", "setting": "[20]", "value": -0.156}, {"measurement": "glycan array binding signal (z-score)", "setting": "[21]", "value": -0.101}, {"measurement": "glycan array binding signal (z-score)", "setting": "[22]", "value": -0.036}, {"measurement": "glycan array binding signal (z-score)", "setting": "[23]", "value": 0}]}]}
